Source: PubChem BioAssay AID686978 (National Center for Advancing Translational Sciences (NCATS), 2013)
In all, about 420,000 compounds went through this assay and about 64,000 (15%) were called active. The inconclusive results got no clear call from the source; some entries with a clear call stand among them for comparison. Calls come from the whole dose curve; as a rule, active = well fitted inhibition curve with a large enough effect; inconclusive = small, poorly fitted or top-dose-only effect; inactive = flat fitted curve, though single readings scatter. No potency is given beside an inconclusive call; the fits are too rough.

Test: qHTS for Inhibitors of human tyrosyl-DNA phosphodiesterase 1 (TDP1): qHTS in cells in absence of CPT; note: nearly all actives have a fitted effect of over 55% in size
Conditions: DT40 Tdp1-/- hTDP1 cells, no CPT, ATP luminescence, 48 h; activity change, negative = growth inhibition: at 46.2 µM (top of the series) unless noted
Outline: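 Compound effects on proliferation are scored in DT40 Tdp1-/-;hTDP1 cells in the absence of CPT. ATP levels (CellTiter-Glo luminescence) are recorded after a ≥48 hr, 37 °C incubation.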
% is set by controls: 0 for no effect and ±100 for the full control effect; potency is the fitted concentration of half-maximal effect; tags give direction and shape of the fitted curve.

Row | SMILES | activity change, negative = growth inhibition | Potency
1 | Cc1nnc2sc(-c3csc4c3CCCC4)nn12 | inactive: -7.55% | –
2 | N#C/C(=C(/O)c1cccc(F)c1)c1nc2ccccc2s1 | – | active: 11.6 µM
3 | Cn1c(CC(=O)Nc2ccccc2Cl)nnc1SCC(=O)NC1=NCCS1 | – | inconclusive [inhibitor, single point]
4 | COc1cc(CO)c(Br)cc1OCC(=O)Nc1ccccc1C | inactive: 9.91% | –
5 | COc1ccc(NC(=S)Nc2ccc(OC)cc2OC)c(OC)c1 | – | inconclusive [inhibitor, single point]
6 | CC(C)CCNC(=O)c1cc2c(=O)n3ccccc3nc2s1 | – | inconclusive [inhibitor, partial curve]
7 | O=C(Nc1ccccc1Cl)c1cc(C2CCCN(C(=O)c3cccs3)C2)on1 (configuration not stated) | inactive: -5.33% | –
8 | CC(=O)Nc1ccc(C(=O)N/C(=C/c2ccccc2)C(=O)NCc2ccco2)cc1 | inactive: 2.53% | –
9 | CNC(=S)N/N=C/c1c(C(=O)OC)cnn1-c1ccc(F)cc1F | – | active: 16.4 µM
10 | O=C(N/N=C/c1cccc([N+](=O)[O-])c1)c1cc2c(ccc3ccccc32)o1 | – | inconclusive [inhibitor, partial curve]
11 | CCc1ccc(NC2=NCC(=O)N2c2ccc3c(c2)OCCO3)cc1 | – | inconclusive [inhibitor, partial curve]
12 | O=C(CN1C(=O)NC(Cc2ccccc2)C1=O)Nc1ccccc1OC(F)F (configuration not stated) | inactive: -1.47% | –
13 | CCCCOc1ccc(CC(=O)N(C)O)cc1 | – | inconclusive [inhibitor, partial curve]
14 | Cc1nc2cc(-c3ccc(Cl)cc3)nn2c(C)c1CCC(=O)NCc1ccco1 | – | inconclusive [inhibitor, single point]
15 | O=C(O)CNC(=S)N(Cc1ccc(F)cc1)C1CCCCC1 | – | inconclusive [inhibitor, single point]
16 | CCC(=O)Nc1cc(OC)c(NC(=S)Nc2ccccc2CC)cc1OC | – | inconclusive [inhibitor, single point]
17 | COc1cccc(-c2nnn(CC(=O)N3CCC(C)CC3)n2)c1 | inactive: -21.4% | –
18 | CC(=S)c1c(C)cc2cc(C)ccn12 | – | inconclusive [inhibitor, single point]
19 | O=C(O)C1=CC[C@@H](c2ccc(Cl)cc2)N(S(=O)(=O)c2ccc(Cl)cc2)[C@H]1c1ccccc1 | inactive: 3.46% | –
20 | CCOC(=O)C1=C(C)NC(=O)NC1c1cn(-c2ccccc2)nc1-c1cccs1 (configuration not stated) | – | inconclusive [inhibitor, single point]
21 | CCc1noc(C)c1C(=O)NNC(=O)c1ccccc1Cl | inactive: 14.9% | –
22 | CCCC1OC23CCCCC2C(C#N)(C(=N)O3)C1(C#N)C#N (configuration not stated) | – | active: 16.4 µM
23 | COc1ccccc1NC(=O)CSc1ccc2nnc(-c3ccc(C)cc3)n2n1 | – | inconclusive [inhibitor, single point]
24 | CC(C)[C@H](NS(=O)(=O)c1ccccc1)C(=O)OCC(=O)Nc1ccccc1Sc1ccccc1 | – | inconclusive [inhibitor, single point]

Row | SMILES | activity change, negative = growth inhibition | Potency
25 | COC(=O)c1ccc2c(=O)n(Cc3ccc(C(=O)NC4CCCC4)cc3)c(=S)[nH]c2c1 | – | inconclusive [inhibitor, single point]
26 | Cc1c(Cl)cccc1NC(=O)c1ccc2nc(C(C)C)oc2c1 | – | active: 11.6 µM
27 | CCCN1C(=O)C(O)(C2CC(=O)CC(C)(C)O2)c2ccccc21 (configuration not stated) | – | active: 5.8 µM
28 | Cc1nc2c(c3c1[nH]c1ccccc13)C(=O)CC(C)(C)C2 | – | inconclusive [inhibitor, single point]
29 | COc1ccc(CNc2nc(-c3c(C)noc3C)nc3ccccc23)c(OC)c1 | – | inconclusive [inhibitor, single point]
30 | Cc1cc(C)cc(NS(=O)(=O)c2ccc3c(c2)C(C)(C)C(=O)N3C)c1 | – | inconclusive [inhibitor, single point]
31 | O=C(NCc1ccccc1)c1ccc2nc(N3CCOCC3)sc2c1 | inactive: -22.5% | –
32 | O=C(CN1CCN(S(=O)(=O)/C=C/c2ccccc2)CC1)NCC(F)(F)F | inactive: -22.9% | –
33 | COc1ccc([C@H]2CC(=O)C=C(c3cccc(C#N)c3)C2)cc1 | – | inconclusive [inhibitor, single point]
34 | OC(COc1ccc(F)cc1)CN1CCN(CC(O)COc2ccc(F)cc2)CC1 (configuration not stated) | – | inconclusive [inhibitor, partial curve]
35 | Cc1noc(C)c1S(=O)(=O)N1CCC(Cc2ccccc2)CC1 | – | inconclusive [inhibitor, single point]
36 | C=C(C)Cn1c(CCCNC(=O)CC)nc2ccccc21 | – | inconclusive [inhibitor, single point]
37 | CCCCNC(=O)c1c(CSc2ccccc2)noc1C(=O)NCc1ccccc1 | – | inconclusive [inhibitor, single point]
38 | CCN(CC(O)COCc1ccc(Cl)cc1)C1CCCCC1 (configuration not stated) | – | inconclusive [inhibitor, single point]
39 | O=C(NCc1ccccc1)C(C1CC1)n1c(-c2cccs2)nc2ccccc21 (configuration not stated) | – | active: 9.2 µM
40 | Cc1cc(S(=O)(=O)N2CCCOC2CNC(=O)C(=O)NCc2ccco2)ccc1F (configuration not stated) | – | inconclusive [inhibitor, single point]
41 | COc1ccc(C(=O)NNC(=S)NC(=O)c2ccc(F)cc2)cc1Br | – | inconclusive [inhibitor, single point]
42 | O=C(CC1SCCNC1=O)Nc1ccc(Cl)cc1 (configuration not stated) | inactive: -10.1% | –
43 | COc1cccc(OCC(Cn2cnc3ccccc32)OC(C)=O)c1 (configuration not stated) | – | inconclusive [inhibitor, partial curve]
44 | O=C(CCNC(=O)C1CCN(S(=O)(=O)c2ccc(F)cc2)CC1)NC1CC1 | inactive: 26.3% | –
45 | O=[N+]([O-])c1ccc(Sc2ncccn2)c([N+](=O)[O-])c1 | – | active: 0.92 µM
46 | COc1ncnc(-c2ccccc2)c1-c1ccccc1 | – | active: 14.6 µM
47 | COc1cccc(-c2ccc(NC(=O)C3CCCN(Cc4ccccn4)C3)cc2)c1 (configuration not stated) | – | inconclusive [inhibitor, single point]
